Experimental data taken from the supplement of paper PMC11417369.
The list shows a part of the results.

Tested on: PfHDP1 homeodomain (GST-tagged)
Assay: gcPBM binding intensity (ln(normalized median fluorescence intensity)); higher = stronger DNA binding
Method in brief: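 DNA-binding domains from P. falciparum, fused to GST and produced in E. coli, were put on an Agilent 4 × 180k double-stranded probe array for 1 h in 1× PBS holding 1% milk, 0.2 mg/ml BSA, 0.5% salmon testes DNA and 0.03% Triton X-100. Probes were primer-extended, 36 bp long and drawn from intergenic genomic regions, with negative controls included. After Alexa488 anti-GST antibody detection and a 488 nm scan, binding intensity was set as the highest Masliner-normalised natural-log median intensity across replicate spots of either probe orientation.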

Compared with “AAACGGCTATTAAAATGTACATGTAAATATATTAAA [XGTACX_site918]”, “ATCTTTTTACTTAATACACACACACCCAAAAAAAAA [CACACA_site8221]” is higher in “gcPBM binding intensity (ln)” value: 6.66 for the first, 7.33 for the second.

Compared with “AAATTTTTTATTAGTAGTACGCATAAATATATGTAT [XGTACX_site1934]”, “AAAAATTCTTCCCAAGCATGCGCGCGTAAAATATTT [TGCATGCA_site77]” is higher in “gcPBM binding intensity (ln)” value: 6.55 for the first, 6.74 for the second.

Going from “AAAAAAAAAAGAAAAGGTACACAGAATATATATATA [XGTACX_site6914]” to “AAAAAAATAAGACACACACACAAAAAAATAAAAATA [CACACA_site6357]”, the “gcPBM binding intensity (ln)” value falls from 8.7 to 6.88.

Going from “ATTATGAATTTTAATTGTACATTATTATAGAATGTA [XGTACX_site619]” to “AATAATTCTTAAAGGTGTACAATATGTATATAAGAA [XGTACX_site595]”, the “gcPBM binding intensity (ln)” value rises from 6.22 to 7.29.

Compared with “AGTTATTTTTATATTTCACACACATATACTTTTACA [CACACA_site9357]”, “AATAAATAGTAGTAGGTGCTACTATATTATATATAT [GTGCAC_site9452]” is higher in “gcPBM binding intensity (ln)” value: 6.73 for the first, 6.85 for the second.

Compared with “TATGTAATAATAAACGGTACACTATATTGTATGAAA [XGTACX_site4648]”, “GCATATGATGAGCATATAATCATAAGAAAAAAAAAA [CACACA_negctrl_site701]” is higher in “gcPBM binding intensity (ln)” value: 6.79 for the first, 7.24 for the second.

Compared with “ATTTTCTATATCTTTCAACACACAAATTTTTTTTTC [CACACA_site7918]”, “TACATCAAACAAGTATGTACATATATATATATATAT [XGTACX_site7415]” is higher in “gcPBM binding intensity (ln)” value: 6.69 for the first, 9.29 for the second.

Going from “TATATATATATAGATGCATGCAATTACATATAACAA [TGCATGCA_site118]” to TTGTGTACATATTAAGTGCATATATATATATATATA, the “gcPBM binding intensity (ln)” value rises from 8.87 to 9.66.

Going from “ATATTACATATGTGCTGTACGCAATATATTATATCT [XGTACX_site1520]” to “GCATATCTATTTTCACGTACACAAACATGTATATAT [XGTACX_site3722]”, the “gcPBM binding intensity (ln)” value rises from 6.87 to 7.27.

Compared with “AAGAACTTTAATAAGTGTACATTTATTGGAAACATG [XGTACX_site2995]”, “TTATATAAACACCAACGTACGTTCATTTAACATAAC [XGTACX_site5250]” is higher in “gcPBM binding intensity (ln)” value: 6.61 for the first, 6.7 for the second.

First: TATATATATATATATTGTACATATGTGGTATAAATG [XGTACX_site6108]
Second: AAAAATATATATTCAGTGCATATAACAAAAATTATA [GTGCAC_site9794]
The “gcPBM binding intensity (ln)” value of the first is lower: 9.03 for the first, 9.35 for the second.

First: CATATATAACCTATAGCACACATATATAATATATAT [CACACA_site8544]
Second: CATAATAATAGAAACACACACACATAGACATATATA [CACACA_site1308]
The “gcPBM binding intensity (ln)” value of the first is lower: 6.87 for the first, 6.99 for the second.

First: ATTAAATAAAAAAACACACACATATATACATATATA [CACACA_site3445]
Second: TAAAATATAGAAAATTTTATTAAATATAAAAAAATA [CACACA_negctrl_site1441]
The “gcPBM binding intensity (ln)” value of the first is higher: 6.67 for the first, 5.87 for the second.

First: TATATTATTTTATATTGTACATACCAAATATTATAT [XGTACX_site1693]
Second: AGAAAAATAAACAAATGTACAAATTATTACTATATA [XGTACX_site1087]
The “gcPBM binding intensity (ln)” value of the first is lower: 6.31 for the first, 6.32 for the second.

First: CATGTGATAATGATTAGTACATAAACAAAAATATAT [XGTACX_site5866]
Second: ACATATTAATTATTATGACATACATATCAGTTATTA [TGCATGCA_negctrl_site126]
The “gcPBM binding intensity (ln)” value of the first is higher: 6.73 for the first, 6.31 for the second.

First: TTTCTCTTCTAAACATGTACAAAAATACATACATAT [XGTACX_site1365]
Second: AAAAATTAAAATATTATAGTTGAAACTTTTATAAAT [TGCATGCA_negctrl_site454]
The “gcPBM binding intensity (ln)” value of the first is higher: 6.9 for the first, 5.9 for the second.

First: TCCCATTTATTATGGTGTACAATTAATTAAACATAA [XGTACX_site750]
Second: ATATATATATATATATGTACATACATACATAGAACT [XGTACX_site2214]
The “gcPBM binding intensity (ln)” value of the first is lower: 6.45 for the first, 9.21 for the second.

Going from “TATATTTATTCCTGTTGTACTTTATATTATTTTTTT [XGTACX_site1415]” to “AATTTTGTTTAGCACACACACATACATACATACATA [CACACA_site5707]”, the “gcPBM binding intensity (ln)” value rises from 6.89 to 7.49.

Compared with “TATAATATTAATGACTGTACTCATACGTATATTTAT [XGTACX_site5493]”, “CCCATTTTGACAAAAAGTACAAGTTCAGGTTTTATA [XGTACX_site1532]” is lower in “gcPBM binding intensity (ln)” value: 6.78 for the first, 6.44 for the second.

Going from “TTTAATTATTAGTGTGCACACAACTATGAGTTTTTA [CACACA_site8997]” to “AATTACATTCAATTCTGTACTAATAGTAATTCAAAA [XGTACX_site7419]”, the “gcPBM binding intensity (ln)” value falls from 10.8 to 6.46.

First: CAAAAACATACCTACACACACAATATGTATTTATAA [CACACA_site5862]
Second: AAATGAATATTCATAGTGCAATATATAAATGAAAAT
The “gcPBM binding intensity (ln)” value of the first is lower: 6.55 for the first, 9.5 for the second.

First: AAATATATTTCACGCACACACACCCCAAATAAATTT [CACACA_site3820]
Second: TATTCCTATAAAAAAACACACACATATAAATATATA [CACACA_site8727]
The “gcPBM binding intensity (ln)” value of the first is higher: 7.65 for the first, 6.56 for the second.

Compared with “AAATAGATAAGTAGGACACACATATATATATATTAA [CACACA_site1862]”, “AAGTATTTTTTTACATGTACATATATATATATATAT [XGTACX_site5065]” is higher in “gcPBM binding intensity (ln)” value: 6.49 for the first, 9.28 for the second.

First: ATATTTCAAAATGAAAGTACATATAAAAATTATACA [XGTACX_site3787]
Second: ATTTGCAGTATTTCGGAACACACAAACATAAATATG [CACACA_site8726]
The “gcPBM binding intensity (ln)” value of the first is lower: 5.9 for the first, 6.46 for the second.

First: TATAAAAAATTCTTCCTTATTTTATGATATATATAT [TGCATGCA_negctrl_site57]
Second: TCATTTTATTATTCTACACACTTATCTATAATTATA [CACACA_site34]
The “gcPBM binding intensity (ln)” value of the first is higher: 8.05 for the first, 6.73 for the second.

First: TTTTTCATATGACACACACACAAAAATAATGTGGAA [CACACA_site7692]
Second: AAATGAACACGAAAGGAAAAAAAAATATATATATAT [CACACA_negctrl_site267]
The “gcPBM binding intensity (ln)” value of the first is lower: 6.58 for the first, 9 for the second.

Compared with “CATTTTTTTTTATAAATACACACGTACGGGTGCATA [CACACA_site1569]”, “TTCTGGCAAAATAACACACACATATATTTTATATAC [CACACA_site3242]” is higher in “gcPBM binding intensity (ln)” value: 7.38 for the first, 7.55 for the second.

Going from “GAACATTTACGCCCCACACACCTACCAACAAAAAAA [CACACA_site7746]” to “TTCTTAAAAAAAAATAAAATAAAAAAAAAAATAAAA [CACACA_negctrl_site99]”, the “gcPBM binding intensity (ln)” value falls from 6.81 to 6.16.

“ATAATTACATAGATTGGTACACATTTTTGATTGTAT [XGTACX_site3802]” was tested, and the “gcPBM binding intensity (ln)” value was 6.42.
